# Measured values: the supplement of paper PMC11417369
# The list shows a part of the results.
# Tested on: PfHDP1 homeodomain (GST-tagged)
# Test: gcPBM binding intensity (ln(normalized median fluorescence intensity)); higher = stronger DNA binding
# Outline: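 The binding buffer was 1× PBS containing 1% milk, 0.2 mg/ml BSA, 0.5% salmon testes DNA and 0.03% Triton X-100. In it, GST-tagged P. falciparum DNA-binding domains expressed in E. coli were applied for 1 h to an Agilent 4 × 180k array of primer-extended double-stranded 36-bp intergenic genomic probes plus negative controls. Binding intensity, read with Alexa488 anti-GST antibody and a 488 nm scan, is the highest Masliner-normalised natural-log median intensity across replicate spots of either probe orientation.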
row,Sequence,gcPBM binding intensity (ln)
1,CACAAAAATAAACACACACACATATATATTTATTAT [CACACA_site5923],6.6
2,GGAAACTAAAGGAATAAAACTATGGAAATTAATTAA [CACACA_negctrl_site1647],6.21
3,TAAATTAAAAGACACACACACAAAAAAAAAAAAAAA [CACACA_site7131],6.28
4,TACTATTTAAAATATGAACACACATTATTTGTTTTA [CACACA_site8870],6.17
5,ATATATATATGTAAGAGTACACAAAAATATGTATGT [XGTACX_site4335],8.46
6,TAATATGTATATAAAAGTACAGACGATTATAATTAT [XGTACX_site173],6.47
7,TGGTAATCCACATACACACACACATACACATATATA [CACACA_site2727],7.18
8,AAGAAAAAAAAAATTACACACTGCGCAGATACACAA [CACACA_site1289],6.88
9,TTTTGTAGATATGACTGTACATATTTTATACATAAC [XGTACX_site971],6.31
10,AAAAAATAAATAAATACACACAAATATATATATATA [CACACA_site2543],9.02
11,CTTATATATTGCCCTTCACACACACCCATATATATA [CACACA_site8795],7.47
12,AAGTATGGAAAGGAATATAAATTAATACTTTCATTG [XGTACX_negctrl_site131],6.2
13,CACATACCTATATACACACACAAAATAATAAAATAA [CACACA_site7150],6.92
14,TATATATATATATTGACACACATGTATTTCAATATT [CACACA_site2832],9.01
15,AGAATGGATTAGCTAGCACACACAAAAAAAAAAAAA [CACACA_site8995],6.26
16,ACTAATATTTTATAAAGTACAAATTAATAAAATTCA [XGTACX_site5817],5.94
17,TACAAAAAGAATGAAAAATATATAATAAAAATAAAA [XGTACX_negctrl_site159],6.51
18,AAGACAACATAAATATGTACATATATTTATTATTTT [XGTACX_site1792],6.4
19,TACCATGTTCAAATTACACACATATAATCTAATATA [CACACA_site2008],6.65

row,Sequence,gcPBM binding intensity (ln)
1,ATTTTTTTTAATTTGTACAAATTTTGTTCACAATTT [CACACA_negctrl_site1301],7.06
2,CATTTCATTTCTTAATGTACTTTATTCCACCACATA [XGTACX_site5943],6.42
3,TTTATTATTATATTATTTTAATTTTTCTTTAGTACA [GTGCAC_negctrl_site392],6.1
4,AAATTAAATAAATTTACACACTAAAAATTACATATA [CACACA_site1054],6.02
5,ATAAATATATGAAGTTGTACAAATAATTAACATTAT [XGTACX_site5740],6.69
6,ATGTGTGTATACATCAATTATATATATATTATGTAT [GTGCAC_negctrl_site720],6.93
7,AAAATAAAAATAACAACACACATATACTATAATATT [CACACA_site2769],6.66
8,TATGTTAAAAAAAAATGTACATATGTTTTTGTTAAA [XGTACX_site4754],6.43
9,ATACATTCAAAATATACACACATATATATATAATAT [CACACA_site950],6.61
10,TTTCCCCCATATAATGAACACACACCCTCCTCATAA [CACACA_site8110],7.22
11,GACCCATTATTTTATTGTACTTTTATTATAACGTGA [XGTACX_site156],6.88
12,AAATGAATAATGATATACAAACAAATCATGTGTTAA [XGTACX_negctrl_site150],6.22
13,ATAATATAGAACAATACATGCAAATGGCTTAAATTT [TGCATGCA_site521],6.34
14,GGAAGCTAATTACACACATGCATATTTTTTTTTCAA [TGCATGCA_site548],7.25
15,ATGGGACAGATATATACACACATATAAATATAAATA [CACACA_site6684],6.53
16,TTATATATGTATTAATGTACATAGTTGAGAAAGGTA [XGTACX_site1511],6.85
17,AAAGGGACATATATATCACACACAAAAATTAGTCCC [CACACA_site8897],6.82
18,TAATATCTACATATATGTACATATATATATATATAT [XGTACX_site7979],9.16
19,AATAAATAAAAAATTACACACATATTTATAAATATA [CACACA_site7584],6.4

row,Sequence,gcPBM binding intensity (ln)
1,AAGATAAACTTTTTTAATTAATTTAATTTTTTTTTT [GTGCAC_negctrl_site386],6.08
2,CCCCCCCACGAACACACACACATACATACCACATAT [CACACA_site7149],8.07
3,TTATAATAGTTAATATGTACATATTTAATAAATAAT [XGTACX_site3183],6.23
4,ATATATATATATATTCCACACACACCCAAAAAAAAA [CACACA_site9215],8.97
5,CACAAAAATAAATATAAACACACAATAAATAAATAA [CACACA_site8197],6.58
6,TAAAATAAGTTAAAAAGTACATAATTATAATAAATA [XGTACX_site8108],6.28
7,TTTGTTTTTATTTACACATGCAAAAAAAAAAAAAAA [TGCATGCA_site655],6.49
8,TACAAAATACAAAAATGTACATAAAAATTTATAAAA [XGTACX_site6861],6.77
9,TACAGATACGGACACACACACACACCCAGACAAAAA [CACACA_site4432],6.81
10,ATATTAAAATATAATCGTACAATTAAATTTTTTTTT [XGTACX_site2739],6.19
11,TTTTTTTTAAATTGTGGTACACAAATTCATATATAT [XGTACX_site8944],6.55
12,TAAATATAATAAGAACAAACAAAATAGTACAATATA [TGCATGCA_negctrl_site364],6.84
13,GTCATATTATTATTACGTACTTAAATATATAATATA [XGTACX_site3405],6.71
14,AAAAGAAAAAAAAGTACACACATGTATATTAATCGT [CACACA_site2528],6.7
15,TGTTAACTTAAAAAAATACCTACGGAAAAATCACAA [TGCATGCA_negctrl_site433],6.28
16,TATGTGTATAATAAAAGTACATATATTATTATATAA [XGTACX_site8556],6.35
17,TATTTCGTAATTTAATAATATACAAGAAATATATAT [XGTACX_negctrl_site143],6.11
18,CATATAATAAAAAATGTACACACATAAGAAAATTTA [CACACA_site8943],6.51
